# Results taken from publication PMC9911399, “Two distinct binding modes provide the RNA-binding protein RbFox with extraordinary sequence specificity”.
# Numbering of substitutions follows the chain as printed; changes in the protein carry UniProt numbers. Some of the results follow.
# T1: RBFOX1 RRM (Homo sapiens, UniProt Q9NWB1 109-208)
# T1 sequence: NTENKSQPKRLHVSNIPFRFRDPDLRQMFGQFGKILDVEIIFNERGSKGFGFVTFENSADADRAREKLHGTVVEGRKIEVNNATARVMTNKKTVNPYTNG
# B1: AUGGCGG (DNA:RNA)
# RNA: GGGAGACCGGAAUUCAGAUUGUCCAUGGCGGUUAAAUCCCGUCGUAGCCACCA
# DNA 1: CAATCTGAATTCCGGTCTCCC
# DNA 2: TGGTGGCTACGACGGGATT
# B2: CAGUAAA (DNA:RNA)
# RNA: B1 RNA with A25C, U26A, G28U, C29A, G30A, G31A
# DNA 1: CAATCTGAATTCCGGTCTCCC
# DNA 2: TGGTGGCTACGACGGGATT
# B3: UACCAUU (DNA:RNA)
# RNA: GGGAGACCGGAAUUCAGAUUGUCCUACCAUUUUAAAUCCCGUCGUAGCCACCA
# DNA 1: CAATCTGAATTCCGGTCTCCC
# DNA 2: TGGTGGCTACGACGGGATT
# B4: GCACGAC (DNA:RNA)
# RNA: B3 RNA with U25G, A26C, C27A, A29G, U30A, U31C
# DNA 1: CAATCTGAATTCCGGTCTCCC
# DNA 2: TGGTGGCTACGACGGGATT
# B5: GGAUCCU (DNA:RNA)
# RNA: B1 RNA with A25G, U26G, G27A, G28U, G30C, G31U
# DNA 1: CAATCTGAATTCCGGTCTCCC
# DNA 2: TGGTGGCTACGACGGGATT
# B6: GCAUUAU (DNA:RNA)
# RNA: B3 RNA with U25G, A26C, C27A, C28U, A29U, U30A
# DNA 1: CAATCTGAATTCCGGTCTCCC
# DNA 2: TGGTGGCTACGACGGGATT
# B7: AAGUUCG (DNA:RNA)
# RNA: B1 RNA with U26A, G28U, C29U, G30C
# DNA 1: CAATCTGAATTCCGGTCTCCC
# DNA 2: TGGTGGCTACGACGGGATT
# B8: GCGAGCG (DNA:RNA)
# RNA: B1 RNA with A25G, U26C, G28A, C29G, G30C
# DNA 1: CAATCTGAATTCCGGTCTCCC
# DNA 2: TGGTGGCTACGACGGGATT
# B9: UCAUGCC (DNA:RNA)
# RNA: B3 RNA with A26C, C27A, C28U, A29G, U30C, U31C
# DNA 1: CAATCTGAATTCCGGTCTCCC
# DNA 2: TGGTGGCTACGACGGGATT
# B10: GUAGUAG (DNA:RNA)
# RNA: B1 RNA with A25G, G27A, C29U, G30A
# DNA 1: CAATCTGAATTCCGGTCTCCC
# DNA 2: TGGTGGCTACGACGGGATT
# B11: CGCAUGU (DNA:RNA)
# RNA: B3 RNA with U25C, A26G, C28A, A29U, U30G
# DNA 1: CAATCTGAATTCCGGTCTCCC
# DNA 2: TGGTGGCTACGACGGGATT
# B12: AGUAGGA (DNA:RNA)
# RNA: B1 RNA with U26G, G27U, G28A, C29G, G31A
# DNA 1: CAATCTGAATTCCGGTCTCCC
# DNA 2: TGGTGGCTACGACGGGATT
# B13: ACCGGCG (DNA:RNA)
# RNA: B1 RNA with U26C, G27C, C29G, G30C
# DNA 1: CAATCTGAATTCCGGTCTCCC
# DNA 2: TGGTGGCTACGACGGGATT
# B14: UAGUGGC (DNA:RNA)
# RNA: B1 RNA with A25U, U26A, G28U, C29G, G31C
# DNA 1: CAATCTGAATTCCGGTCTCCC
# DNA 2: TGGTGGCTACGACGGGATT
# B15: ACAAGAU (DNA:RNA)
# RNA: B1 RNA with U26C, G27A, G28A, C29G, G30A, G31U
# DNA 1: CAATCTGAATTCCGGTCTCCC
# DNA 2: TGGTGGCTACGACGGGATT
# B16: AAGCUGA (DNA:RNA)
# RNA: B1 RNA with U26A, G28C, C29U, G31A
# DNA 1: CAATCTGAATTCCGGTCTCCC
# DNA 2: TGGTGGCTACGACGGGATT
# B17: UGUGAUA (DNA:RNA)
# RNA: B3 RNA with A26G, C27U, C28G, U31A
# DNA 1: CAATCTGAATTCCGGTCTCCC
# DNA 2: TGGTGGCTACGACGGGATT
# B18: UAAGACU (DNA:RNA)
# RNA: B3 RNA with C27A, C28G, U30C
# DNA 1: CAATCTGAATTCCGGTCTCCC
# DNA 2: TGGTGGCTACGACGGGATT
# B19: ACUGAUG (DNA:RNA)
# RNA: B1 RNA with U26C, G27U, C29A, G30U
# DNA 1: CAATCTGAATTCCGGTCTCCC
# DNA 2: TGGTGGCTACGACGGGATT
# B20: GACCCAU (DNA:RNA)
# RNA: B3 RNA with U25G, A29C, U30A
# DNA 1: CAATCTGAATTCCGGTCTCCC
# DNA 2: TGGTGGCTACGACGGGATT
# Target: T1, RBFOX1 RRM
# Experiment: EMSA; HiTS-Eq, 1 nM pool, 10 min; buffer printed only for the single-RNA assays: 10 mM Tris pH 7.5, 150 mM NaCl, 3.4 mM EDTA, 0.001% NP-40, 30 C
# Conditions: tags: His6 N-terminal (pET28a); label: 5' 32P
# How it was run: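 Relative association constants, normalised to the cognate motif, were derived by comparing read counts of each RNA species with those of the control reaction. The RNA sequenced was the free fraction, separated by 8% native PAGE after a 10 min equilibration in 50 µL of 1 nM 5′-radiolabelled RNA (7 randomized nucleotides) with increasing concentrations of purified wild-type or mutant RbFox RRM.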
row,Binder,binding signal
1,B1,0.0185 KA relative to UGCAUGU
2,B2,0.000629 KA relative to UGCAUGU
3,B3,0.00289 KA relative to UGCAUGU
4,B4,0.0177 KA relative to UGCAUGU
5,B5,0.0186 KA relative to UGCAUGU
6,B6,0.00446 KA relative to UGCAUGU
7,B7,0.0121 KA relative to UGCAUGU
8,B8,0.017 KA relative to UGCAUGU
9,B9,0.0112 KA relative to UGCAUGU
10,B10,0.0103 KA relative to UGCAUGU
11,B11,0.735 KA relative to UGCAUGU
12,B12,0.00131 KA relative to UGCAUGU
13,B13,0.00782 KA relative to UGCAUGU
14,B14,0.00551 KA relative to UGCAUGU
15,B15,0.00323 KA relative to UGCAUGU
16,B16,0.00803 KA relative to UGCAUGU
17,B17,0.0161 KA relative to UGCAUGU
18,B18,0.00739 KA relative to UGCAUGU
19,B19,0.0152 KA relative to UGCAUGU
20,B20,0.00238 KA relative to UGCAUGU
